The other results are listed elsewhere or left out.
Experiments:
Assay in all cases: glycan array binding signal (z-score within array); higher = stronger binding
Conditions in all cases: glycan notation: IUPAC condensed, linker removed
[1] = molecular target: Gal(b1-3)GlcNAc(b1-2)Man(a1-3)[Gal(b1-3)GlcNAc(b1-2)Man(a1-6)]Man(b1-4)GlcNAc(b1-4)GlcNAc
In short: (§1)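 Columns mapping to the same glycan were averaged after glycan names were converted to IUPAC-condensed notation. The data come from 3228 arrays in the Consortium for Functional Glycomics database, limited to those with an available protein sequence. Binding is reported as a within-array Z-score averaged across arrays of one protein sequence and across linkers.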

[2] = molecular target: Gal(b1-3)GlcNAc(b1-2)Man(a1-3)[Gal(b1-3)GlcNAc(b1-2)Man(a1-6)]Man(b1-4)GlcNAc(b1-4)[Fuc(a1-6)]GlcNAc
In short: as §1

[3] = molecular target: Gal(b1-3)GlcNAc(b1-2)Man(a1-3)[GlcNAc(b1-4)][Gal(b1-3)GlcNAc(b1-2)Man(a1-6)]Man(b1-4)GlcNAc(b1-4)GlcNAc
In short: as §1

[4] = molecular target: Gal(b1-3)GlcNAc(b1-2)[Gal(b1-3)GlcNAc(b1-6)]Man(a1-6)[Gal(b1-3)GlcNAc(b1-2)Man(a1-3)]Man(b1-4)GlcNAc(b1-4)GlcNAc
In short: as §1

[5] = molecular target: Gal(b1-3)GlcNAc(b1-3)Gal(b1-3)GlcNAc
In short: as §1

[6] = molecular target: Gal(b1-3)GlcNAc(b1-3)Gal(b1-4)Glc
In short: as §1

[7] = molecular target: Gal(b1-3)GlcNAc(b1-3)Gal(b1-4)GlcNAc
In short: as §1

[8] = molecular target: Gal(b1-3)GlcNAc(b1-3)Gal(b1-4)GlcNAc(b1-2)Man(a1-3)[Gal(b1-3)GlcNAc(b1-3)Gal(b1-4)GlcNAc(b1-2)Man(a1-6)]Man(b1-4)GlcNAc(b1-4)GlcNAc
In short: as §1

[9] = molecular target: Gal(b1-3)GlcNAc(b1-3)Gal(b1-4)GlcNAc(b1-2)[Gal(b1-3)GlcNAc(b1-3)Gal(b1-4)GlcNAc(b1-6)]Man(a1-6)[Gal(b1-3)GlcNAc(b1-3)Gal(b1-4)GlcNAc(b1-2)Man(a1-3)]Man(b1-4)GlcNAc(b1-4)[Fuc(a1-6)]GlcNAc
In short: as §1

[10] = molecular target: Gal(b1-3)GlcNAc(b1-3)Gal(b1-4)GlcNAc(b1-3)Gal(b1-4)GlcNAc(b1-2)[Gal(b1-3)GlcNAc(b1-3)Gal(b1-4)GlcNAc(b1-3)Gal(b1-4)GlcNAc(b1-6)]Man(a1-6)[Gal(b1-3)GlcNAc(b1-3)Gal(b1-4)GlcNAc(b1-3)Gal(b1-4)GlcNAc(b1-2)Man(a1-3)]Man(b1-4)GlcNAc(b1-4)[Fuc(a1-6)]GlcNAc
In short: as §1

[11] = molecular target: Gal(b1-3)GlcNAc(b1-3)Gal(b1-4)GlcNAc(b1-6)[Gal(b1-3)GlcNAc(b1-3)]Gal(b1-4)Glc
In short: as §1

[12] = molecular target: Gal(b1-3)GlcNAc(b1-3)Gal(b1-4)[Fuc(a1-3)]GlcNAc
In short: as §1

[13] = molecular target: Gal(b1-3)GlcNAc(b1-3)Gal(b1-4)[Fuc(a1-3)]GlcNAc(b1-6)[Gal(b1-3)GlcNAc(b1-3)]Gal(b1-4)Glc
In short: as §1

[14] = molecular target: Gal(b1-3)GlcNAc(b1-3)GalNAc
In short: as §1

[15] = molecular target: Gal(b1-3)GlcNAc(b1-6)Gal(b1-4)GlcNAc
In short: as §1

[16] = molecular target: Gal(b1-3)GlcNAc(b1-6)GalNAc
In short: as §1

[17] = molecular target: Gal(b1-3)GlcNAc(b1-6)[Gal(b1-3)]GalNAc
In short: as §1

Gal(b1-3)GlcNAc6S = molecular target: Gal(b1-3)GlcNAc6S
In short: as §1

[18] = molecular target: Gal(b1-3)[Fuc(a1-4)]GlcNAc
In short: as §1

[19] = molecular target: Gal(b1-3)[Fuc(a1-4)]GlcNAc(b1-2)Man
In short: as §1

[20] = molecular target: Gal(b1-3)[Fuc(a1-4)]GlcNAc(b1-2)Man(a1-3)[Gal(b1-3)[Fuc(a1-4)]GlcNAc(b1-2)Man(a1-6)]Man(b1-4)GlcNAc(b1-4)[Fuc(a1-6)]GlcNAc
In short: as §1

[21] = molecular target: Gal(b1-3)[Fuc(a1-4)]GlcNAc(b1-3)Gal(b1-3)[Fuc(a1-4)]GlcNAc
In short: as §1

[22] = molecular target: Gal(b1-3)[Fuc(a1-4)]GlcNAc(b1-3)Gal(b1-4)[Fuc(a1-3)]GlcNAc
In short: as §1

[23] = molecular target: Gal(b1-3)[Fuc(a1-4)]GlcNAc(b1-6)GalNAc
In short: as §1

[24] = molecular target: Gal(b1-3)[GlcNAc(b1-6)]GalNAc
In short: as §1

[25] = molecular target: Gal(b1-3)[Neu5Ac(a2-6)]GalNAc
In short: as §1

[26] = molecular target: Gal(b1-3)[Neu5Ac(a2-6)]GlcNAc(b1-4)Gal(b1-4)Glc
In short: as §1

[27] = molecular target: Gal(b1-3)[Neu5Ac(b2-6)]GalNAc
In short: as §1

Gal(b1-4)Gal = molecular target: Gal(b1-4)Gal
In short: as §1

[28] = molecular target: Gal(b1-4)GalNAc(a1-3)[Fuc(a1-2)]Gal(b1-4)GlcNAc
In short: as §1

[29] = molecular target: Gal(b1-4)GalNAc(b1-3)[Fuc(a1-2)]Gal(b1-4)GlcNAc
In short: as §1

Gal(b1-4)Glc = molecular target: Gal(b1-4)Glc
In short: as §1

Gal(b1-4)Glc6S = molecular target: Gal(b1-4)Glc6S
In short: as §1

Gal(b1-4)GlcNAc = molecular target: Gal(b1-4)GlcNAc
In short: as §1

[30] = molecular target: Gal(b1-4)GlcNAc(a1-6)Gal(b1-4)GlcNAc
In short: as §1

Gal(b1-4)GlcNAc(b1-2)Man = molecular target: Gal(b1-4)GlcNAc(b1-2)Man
In short: as §1

[31] = molecular target: Gal(b1-4)GlcNAc(b1-2)Man(a1-3)Man(b1-4)GlcNAc(b1-4)GlcNAc
In short: as §1

B1: DC-Sign (Homo sapiens), Q9NNX6 (protein)
chain: MSDSKEPRLQQLGLLEEEQLRGLGFRQTRGYKSLAGCLGHGPLVLQLLSFTLLAGLLVQVSKVPSSISQEQSRQDAIYQNLTQLKAAVGELSEKSKLQEIYQELTQLKAAVGELPEKSKLQEIYQELTRLKAAVGELPEKSKLQEIYQELTWLKAAVGELPEKSKMQEIYQELTRLKAAVGELPEKSKQQEIYQELTRLKAAVGELPEKSKQQEIYQELTRLKAAVGELPEKSKQQEIYQELTQLKAAVERLCHPCPWEWTFFQGNCYFMSNSQRNWHDSITACKEVGAQLVVIKSAEEQNFLQLQSSRSNRFTWMGLSDLNQEGTWQWVDGSPLLPSFKQYWNRGEPNNVGEEDCAEFSGNGWNDDKCNLAKFWICKKSAASCSRDEEQFLSPAPATPNPPPA
B1 was tested, and the “glycan array binding signal (z-score)” value [1] was -0.086, the “glycan array binding signal (z-score)” value [2] was -0.183 and the “glycan array binding signal (z-score)” value [3] was -0.036. For the same binder, the “glycan array binding signal (z-score)” value [4] was -0.07, the “glycan array binding signal (z-score)” value [5] was -0.156 and the “glycan array binding signal (z-score)” value [6] was -0.194. The “glycan array binding signal (z-score)” value [7] was -0.188, the “glycan array binding signal (z-score)” value [8] was -0.137 and the “glycan array binding signal (z-score)” value [9] was 1.22. The “glycan array binding signal (z-score)” value [10] was 1.4, the “glycan array binding signal (z-score)” value [11] was -0.179 and the “glycan array binding signal (z-score)” value [12] was -0.132. The “glycan array binding signal (z-score)” value [13] was -0.152, the “glycan array binding signal (z-score)” value [14] was -0.101 and the “glycan array binding signal (z-score)” value [15] was -0.151. For the same binder, the “glycan array binding signal (z-score)” value [16] was -0.197, the “glycan array binding signal (z-score)” value [17] was -0.087 and the “glycan array binding signal (z-score)” value (Gal(b1-3)GlcNAc6S) was -0.19. The “glycan array binding signal (z-score)” value [18] was 1.01, the “glycan array binding signal (z-score)” value [19] was -0.055 and the “glycan array binding signal (z-score)” value [20] was 0.135. For the same binder, the “glycan array binding signal (z-score)” value [21] was 2.51, the “glycan array binding signal (z-score)” value [22] was 0.304 and the “glycan array binding signal (z-score)” value [23] was -0.117. For the same binder, the “glycan array binding signal (z-score)” value [24] was -0.182, the “glycan array binding signal (z-score)” value [25] was -0.18 and the “glycan array binding signal (z-score)” value [26] was -0.187. For the same binder, the “glycan array binding signal (z-score)” value [27] was -0.112, the “glycan array binding signal (z-score)” value (Gal(b1-4)Gal) was -0.19 and the “glycan array binding signal (z-score)” value [28] was -0.178. For the same binder, the “glycan array binding signal (z-score)” value [29] was -0.159, the “glycan array binding signal (z-score)” value (Gal(b1-4)Glc) was -0.186 and the “glycan array binding signal (z-score)” value (Gal(b1-4)Glc6S) was -0.188. The “glycan array binding signal (z-score)” value (Gal(b1-4)GlcNAc) was -0.185, the “glycan array binding signal (z-score)” value [30] was -0.166 and the “glycan array binding signal (z-score)” value (Gal(b1-4)GlcNAc(b1-2)Man) was -0.122. The “glycan array binding signal (z-score)” value [31] was -0.119.

Source: the supplement of paper PMC8728848
